# Results from the RNAGym collection of RNA variant scans (doi:10.7554/elife.90254).
# The source gives no read counts; variants with many changes may rest on few reads.
# B1: OR4K15 (parent)
# chain: GUUAACGGUCAUAGGCCAUGGAAACUAGGAGCACCAUUUCGCUGCCAGUGAAGAAAUGAACAAAGAAAAUCUGGGCCAGGCAGGCAUCAAAAGAAAUAGUCUUGCGCUCAACCAGAAAGUCUGUAAUCAUUUUAAGGGUA
# Variants of: B1
# Test: self-cleavage, relative activity (ratio to wild type); higher = more cleavage; in vitro, sequencing; the parent is a self-cleaving ribozyme
row,Variant,self-cleavage
1,GUUAACGGUCAUAGGCCAUGGAAACUAGGAGCACCAUUUCGCUGCCAGUGAAGAAAUGUACAAAGAAAAUCUGGGCCAGGCAGGCAUCAAAAGAAAUAGUCUUGCGCCCAACCAGAGAGUCCGUAGUCAUUUUAAGGGUA [A59U U108C A117G U122C A126G],0.01
2,GUUAGCGGCCUUAGGCCAUGGAAACUAGGAGCACCAUUUCGCUGCCAGUGAAGAAAUGAACAAAGAAAAUCUGGGCCAGGCAGGCAUCAAAAGAAGUAGUCCUGCGCUCAACCAGAAAGUCUGUAAUCAUUUUAAGGGUA [A5G U9C A11U A96G U102C],1.37
3,GUUAACGGUCAUAGGCCACGGAAACUAGGAGCACCAUUUCGCUGCCAGUGAAGAAAUGAACAAUGAAAAUCCAGGCCAGGCAGGCAUCAAAAGAAAUGGUCUUGCGCUCAACCAGAAAGUCUGUAAUCAUUUUAGGGGUA [U19C A64U U72C G73A A98G A135G],0.06
4,GUUAACGGUCAUAGGCCAUGGAAACUUGGAGCACCAUUUCGCUGCCAGUGAGGAAAUGAACAAGGAAAAUCUGGGCCAGGCAGGCAUCAAAAGAAGUAGUCUUGCGCUCAUCCAGAAGGUCCGUAAUCAUUUUAAGGGUA [A27U A52G A64G A96G A111U A118G U122C],0.13
5,GUUAACGGUCAUAGGCCAUGGAAACUAGGGGCACCAUUUCGCUGCCAGUGAAGAAAUGAUCAAGGAAAAUCUGAGCCAGGCAGGCAUCAAGAGAAAUAGCCUUGCGCUCGACCAGAAAGUCUGUAAUCAUUUUAAGGGUA [A30G A60U A64G G74A A91G U100C A110G],0.07
6,GUUAACGGUCAUAGGCCAUGGAAACUAGGAGCACCAUUUCGCUGCCAGUGAAGAAGUGAACAAAGAAAAUCUGGGCCAGGCAGGCAUCAAGAGAAAUAGUCUUGCGCUCAACCAGAGAGUCUGUAAUCACUUUAAGGGUA [A56G A91G A117G U130C],0.78
7,GUUAACGGUCAUAGGCCAUGGAAACUAGGUGCACCAUUACGCUGCCAGUGAAGAAAUGAACAAAGAAAAUCCGGGCCAGGCAGGCAUCAAAAGAAAUAGUCUUGCGCUCAACCAGAAAGUCUGUAAUCAUUUUAAGGGUA [A30U U39A U72C],0.35
8,GUUAACGGUCAUAGGCCAUGGAAACUAGGAGCACCAUUUCGCUGCCAGUGAGGAAAUGAACAAAGAAAAUCUGGGCCAGGCAGGCAUCAAGGGAAAUAGUCUUGCGCUCAACCAGAAAGUCCGUAAUCACUUUAAGGGUA [A52G A91G A92G U122C U130C],0.6
9,GUUAACGGUCAUAGGCCAUGGAAACUAGGAGCCCCAUUUCGCUGCCAGUGAUGGGAAGAACAAAGAAAAUCUGGGCCAGGCAGGCAUCAAAAGAAAUAGUCUUGCGCUCAACCAGAAAGUCUGUAAUCAUUUUAAGGGUA [A33C A52U A54G A55G U57A],1
10,GUUAACGGUCAUAGGCCAUGGAAACUGGGAGCACCACUUCGCUGCCAGUGAAGAAAUGAACAAAGAAAAUCUGGGCCAGGCAGGCAUCAAAAGAAAUAGUCUUGCGCUCAACCAGAAAGUCUGUAGUCAUUUUAAGGGUA [A27G U37C A126G],0.71
11,GUUAACGGUCAUAGGCCAUGGAAACUAGGAGCACCAUUUCGCUGCCAGUGAAGAAAUGGACAAAGAAUAUCUGGGCCAGGCAGGCAUCAAUAGAAAUAGUCUUGCGCUCAACCAGAGAGUCUGUAAUCAUUUUAAGGGUA [A59G A68U A91U A117G],1.83
12,GUUAACGGUCAUAGGCCAUGGAAACUAGGAGCACCACUUCGCCGCCAGUGAAGAAAUGAACAAAGAAAAUCUGGGCCAGGCAGGCAUCAAAAGAAAUAGUCUCGCGCUCAGCCAGAAAGUCUGUAAUCAUUUUAAGGGUA [U37C U43C U103C A111G],0.01
13,GUUAACGGUCAUAGGCCAUGGAAACUAGGAGCACCAUCUCGCUGCCAGUGAAGAAAUGAACAAAGAAAAUCUAGGCCAGGCAGGCAUCAAAAGAAAUUGUCUUGCGCUCAACCAGAAAGUCUGUAAUCAUUUUAAGGGUA [U38C G73A A98U],0.15
14,GGUAACGGUCAUAGGCCAUGGAAACUAGGAGCACCAUUUCGCUGCCAGUGAGGAAAUGAACAAAGAGAAUCUGGGCCAGGCAGGCAUCAAAAGAAAUAGUCUUGCGCUCAACCAGAAAGUCUGUAAUCAUUUUAAGGGUA [U2G A52G A67G],1.26
15,GUUAACGGUCAUAGGCCAUGGAAACUAGGAGCACCAUUUCGCAGCCAGUGAAGAAAUGAACAAAGAAAAUCUGGGCCGGGCAGGCAUCAAAAGAAAUAGUCUUGCGCUCAACCAGAAAGUCUAUAAUCAUCUUAAGGGUA [U43A A78G G123A U131C],0.03
16,GUUAACGGUCAUAGGCCAUGGAGACUAGGAGCACCAUUUCGCUGCCAGUGAAGAAAUGAACAAAGAAAAUCUGGGCCAGGCAGGCAUCAAAAGAAAUAGUCUUGCGCUCAACCAGGAAGUCUGUAAUCAUCUUAAGGGUA [A23G A116G U131C],0.29
17,GUUAACGGUCAUAGGCCAUGGGAACUAGGAGCACCACUUCGCUGCCAGUGAAGAAAUGAACAAAGAAAGUCUGGGCCAGGCAGGCAUCAAAAGAAAUAGUCUUGCGCUCAACCAGAAAGUCUGUAAUCAUUUUAAGGGUA [A22G U37C A69G],0.9
18,GAUAACGGUCAUAGGCCUUGGAAACUAGGAGCACCAUUUCGCUGCCAGUGAAGAAAUGAACAAAGAAAAUCUGGGCCAGGCAAGCAUCAAAAGAAAUAGUCUUGCGCUCAACCAGAAAGUCUGUAAUCAUUUUAAGGGUA [U2A A18U G83A],1.17
19,GUUAACGGUCAUAGGCCAUGGAUACUAGGAGCACCAUUUCGCUGCCAGUGAGGAAAUGAACAAAGAAAAUCUGGGCCAGGCAGGCAUCAAAGGAAAUAGUCUUGCGCUCAGCCAGAAAGUCUGUAAUCAUUUUAAGGGUA [A23U A52G A92G A111G],0.06
20,GUUAACGGUCAUAGGCCAUGGAAACUAGGAGCACCAUUCCGCUGCCAGUGAAGAAAUGAACAAAGAAAAUCUGGGCCAGGCAGGCAACAAAAGAAAUAGUCUUGCGCUCAACCAGAGAGUCUGUAAUCAUUUUAAGGGUA [U39C U87A A117G],0.42
21,GUUAACGGUCAUAGGCCAUGGAAACUGGGAGCACCUUUUCGCUGCCAGUGAAGAAAUGAACAAAGAAAAUCUGGGCCAGGCAGGCAUCAAAAGAAAUAGCCUUGCGCUCAACCUGAAAGUCUGUAAUCAUUUUAAGGGUA [A27G A36U U100C A114U],0.16

row,Variant,self-cleavage
1,GUUAACGGUCAUAGGCCACGGAAACUAGGAGCACCAUUUCGCUGCCAGUGAAGAAAUGAACCAAGAAAAUCUGGGCCAGGCAGGCAUCAAAAGAAAUAGUCUUGCGCUCAAACAGAAAGUCUGUAAUCAUUUUAAGGGUA [U19C A62C C112A],0.09
2,GCUAACGGUCAUAGGCCAUGGAUACUAGGAGCACCAUUUCGCUGCCAGUGAAGAAAUGAACAAAGAAGAUCUGGGCCAGGCAGGCAUCAAAAGAAAUAGUCUUGCGCACAACCAGAAAGUCGGUAAUCAUUUGAAGGGUA [U2C A23U A68G U108A U122G U133G],0.02
3,GUUAUCGGUCAUAGGCCAUGGAAACUAGGAGCACCAUUUCGCUGCCAGUGAAGAAAUGAACAAAGAAAAACUGGGCCAGGCAGGCAUCAAAAGAAAUAGUCUUGCGCUCAGCCAGAAAGUCUGUAAUCAUUUUAAGGGUA [A5U U70A A111G],0.05
4,GUUAACGGUCAUAGGCCAUGGUAACUAGGAGCACCAUUUCGCUGCCAGUGAAGAAAUGAACAAAGAAAAUCUGGGCCAGGCAGGCAUCAAAAGAAAUAGUCUUGCGCUCAACCAGAAAGUCUGUAAUCAUUCUAGGGGUA [A22U U132C A135G],1.91
5,GUUAACGGUCAUAGGCCAUGGAAACUAGGAGCACCAUUUCGCUGCCAGUGUAGAAAUGGACGAAGAAAAUCUGAGCCAGGCAGGCAUCAAAAGAAAUAGUCUUGCGCUCAACCCGAAAGUCUGUAAUCACUUUAAGGGUA [A51U A59G A62G G74A A114C U130C],0
6,GUUAACGGUCAUAGGCCAUAGAAACUAGGAGCACCAUUUCGCUGCCAGUGAAGAAAUGAACAAAGAAAAUCCGGGCCAGGCAGGCAUCAAAAGGAAUAGUCUUGCGCUCAACCAGAAAGUCUGUAAUCAUUUUAAGGGUA [G20A U72C A94G],0.24
7,GUUAACGGUCAUAGGCCAUGGGAGCUAGGAGCACCAUUUCGCUGCCAGUGAAGAAAUGAACAAAGAAAAUCUGGGCCAGGCAGGCACCAAAAGAAAUAGUCUUGCGCUCAACCAGAAAGUCUGUAAUCAUUUUAAGGGUA [A22G A24G U87C],0.93
8,GUUAACGGUCAUAGGCCAUGGAAACUAGGAGCACCAUUUCGCAGCCAGUGUAGAAAUGAACAAAGAAAAUCUGGGCCAGGCAGGCAUCAAGAGAAAUAGUCUUGCGCUCAUCCAGUAAGUCUGUAAUCAUUUUAAGGGUA [U43A A51U A91G A111U A116U],0.01
9,GUUAACGGUCAUAGGCUAUGGAAACUAGGAGCACCAUUUCGCUGCCAGUGAAGAAAUGAACAAAGAAAAUCUGGGCCAGGCAGGCAUCAAAAGAAAUAGUCUUGCGCUUAACCAGAAAGUCUGUAAUCAUUUUAGGGGUA [C17U C109U A135G],0.45
10,GUUAACGGUCAUAGGCCAUGGAAACUAGGAGCACCAUUUCGCUGCCAGUGAAGAAAUGAACAAAGAAAAUCUGGGCCAGGCAGGCAUCAAAAGAAAAAGUCUUGCGCUCAGCCAGAAAGUCUGUAAUCAUCUUAAGGGUA [U97A A111G U131C],0.01
11,GUUAACGGUCAUAGGCCAUGGAAACUAGGAGCACCAUUUCGCUGCCAGUGAAGAAAUGAACAAAGAAAAUCUGGGCCAGGCAGGCAUCAGAGGACAUAGUCUUGCGCUCAACCAGAAAGUCUGUAAUCAUUUUAAGGGUA [A90G A92G A95C],0.59
12,GUUAACGGUCAUAGGCCAUUGAAACUAGGAGCACCAUUUCGCUGCCAGUGAAGAAAUGAACAAAGAAAAUCUGGGCCAGGCAGGCAUCAAAAGAAAUUGUCUCGCGCUCAACCAGAAAGUCUGUAAUCAUUUUAAGGGUA [G20U A98U U103C],2.37
13,GUUAACGGCCAUAGGCCAUGGAAACUAGGAGCACCAUUUCGCUGCCAGUGAAGAACUGAACAAAGAAAAUCUGGGCCAGGCAGGCAUCAAAAGAAGUAGUCUUGCGCUCAACCAGAAAGUCUGUAAUCAUUUUAAGGGUA [U9C A56C A96G],2.07
14,GUUAACGGUCAUAGGCCAUGGAAACUAGGAGCAGCAUUUCGCUGCCAGUGAAGAAAUGAAAAGAGAAAAUCUGGGCCAGGCAGGCAUCAAAAGAGAUAGUCUUGCGCUCAACCAGAAAGUCUGUAAUCAUUUUAAGGGUA [C34G C61A A63G A95G],1.3
15,GUUAACGGUCAUAGGCCAUGGGAACUAGGAGCACCAUUUCGCUGCCAGUGAAGAAAUGAACAAAGAGAAUCUGGGCCAGGCAGGCAUCGAAAGAGAUAGUCUUGCGCUCAACCAGAAAGUCUGUAAUCACUUUAAGGGUA [A22G A67G A89G A95G U130C],2.08
16,GUUAACGGUCAUAGGCCAUGGAAACUAGGAGCACCAUUUCGCUGCCAGUGAGGAAAUGAACAAAGAAAACCUGGGCCAGGCAGGCAUCAAAAGAAAUUGUCUUGCACUCAACCAGAAAGUCUGUAAUCAUCUUAAGGGUA [A52G U70C A98U G106A U131C],0.01
17,GUUAACGGUCAUAGGCCAUGGAAACUAGGAGCACCAUUUCGCUGCCAGUGAAGAGAUGAACAAAGAAAAUCUGGGCCAGGCUGGCAUCAAAAGAAAUAGUCUUGCGCUCAACCAGAAAGUCUGUAAUCAUUUUAAGGGUU [A55G A82U A140U],0.1
18,GUUAACGGUCAUAGGCCAUGGAGACUAGGAGCACCAUUUCGCUGCCAGUGGAGAAAUGAACAAAGAAAAUCUGGGCCAGGCAGGCAUCAAAAGAAAUAGUCUUGCGCUCAGCCAGAAAGUCUGUAAUCAUUUUAAGGGUA [A23G A51G A111G],0.06
19,GUUAACGGUCAUAGGCCAUGGAAACUAGGAGCACCAUUUCGCUGCCAGUGAAGAAAUGAACAAAGAAAAUCUGGGCCAGGCAGGCAUCAAAAGAAAUAGUCUUGCGCUCGACCAGAGAGUCUGUAGUCAUUUUAAGGGUA [A110G A117G A126G],0.13
20,GCUAACGGUCGUAGGCCAUGGAAACUAGGAGCGCCAUUCCGCUGCCAGUGAAGAAAUGAGCGAAGAAAAUCCGGGCCAGGCAGGCAUCAAAAGAAAUAGUCUUGCGCUCAACCAGAAAGUCUGUAAUCAUUUUAAGGGUA [U2C A11G A33G U39C A60G A62G U72C],0.17
